PubChem BioAssay AID686970 (National Center for Advancing Translational Sciences (NCATS), 2013)
The whole screen tested about 360,000 compounds, of which about 6,000 (1.7%) were called active. Inconclusive results, whose numbers are uncertain, are shown with a selection of clear calls. The call rests on the fitted dose curve; in most records, active means well fitted cell-killing curve with a large enough effect; inconclusive means small, poorly fitted or top-dose-only effect, or effect the other way; inactive means flat fitted curve, though single readings scatter. Potencies of inconclusive entries are left out as doubtful fits.

Assay: qHTS for induction of synthetic lethality in tumor cells producing 2HG: qHTS for the HT-1080-NT fibrosarcoma cell line;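 further: NT is the 2HG producing partner of a matched IDH1 knockdown line; nearly all actives have a fitted effect of over 55% in size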;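 on activity, negative = less viability: 0% = DMSO-treated cells and -100% = media-only wells without cells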
Conditions: HT-1080-NT fibrosarcoma viability, CellTiter-Glo ATP luminescence, 48 h; activity, negative = less viability: at 46.1 µM (top of the series) unless noted
Procedure, shortened: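 Toxicity toward the 2HG-producing NT line was scored as %Activity, normalised to DMSO and no-cell wells, from CellTiter-Glo luminescence after 48 hours' treatment.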
Potency means the concentration at half of the fitted maximal effect; tags describe the fitted curve by direction and shape.

SMILES	Potency	activity, negative = less viability
COCCn1c(SCc2ccc(C(=O)OC)o2)nc2ccccc2c1=O	inconclusive [cytotoxic, single point]	
Cc1ccccc1-c1nc(CS(=O)(=O)CC(=O)Nc2cc(F)ccc2F)c(C)o1	inconclusive [cytotoxic, single point]	
CCCOC(=O)CSC1=C(C#N)C(c2ccc3c(c2)OCO3)CC(=O)N1 (configuration not stated)	inconclusive [cytotoxic, partial curve]	
O=c1[nH]c(=O)n([C@H]2C[C@H](O)[C@@H](CO)O2)cc1C(F)(F)F	inconclusive [cytotoxic, full curve]	
O=c1cc(C=NNc2ccc([N+](=O)[O-])cc2)[nH]c(=O)[nH]1	inconclusive [cytotoxic, single point]	
COC(=O)[C@@]1(Cc2ccccc2)[C@@H]2C(=CC(=O)[C@H]2CC(=O)C(=O)N(C)C)CN1C(=O)c1ccccc1	active: 16.4 µM	
C=C1C(=O)[C@]23C[C@H]1CCC2[C@@]1(C)C(C[C@@H]3O)[C@](C)(C(=O)O)CC[C@@H]1O (some centres not stated)	active: 18.4 µM	
c1cncc(C2SCCCS2)c1		inactive: 0.55%
O=C1Nc2ccccc2/C1=C/c1ccccc1F	inconclusive [cytotoxic, single point]	
COCCCNC(=S)N1CCN(c2nc(-c3ccccc3)cs2)CC1	inconclusive [cytotoxic, single point]	
CCCCN(C)C(=O)C1CCC(CNS(=O)(=O)c2ccc3c(c2)CC(C)N3C(=O)C2CC2)CC1 (configuration not stated)	inconclusive [cytotoxic, single point]	
O=C(N/N=C/c1cc([N+](=O)[O-])ccc1O)/C(=C\c1cccs1)NC(=O)c1ccccc1	inconclusive [cytotoxic, full curve, poor fit]	
Cc1ccc2c(CNCc3ccccc3)cc(=O)oc2c1	active: 5.17 µM	
Cc1cc(C)cc(NC(=O)[C@H](NC(=O)[C@@H]2Cc3ccccc3CN2)c2ccccc2)c1	inconclusive [cytotoxic, single point]	
C#CCN(C[C@@H]1[C@@H](OC(=O)NC2CC2)[C@@H](OC(=O)NC2CC2)Cn2c(=O)ccc(=O)n21)S(=O)(=O)c1ccc(C)cc1	inconclusive [cytotoxic, single point]	
O=C(N/N=C1\CCSc2ccc(F)cc21)c1cccnc1		inactive: 5.92%
Cc1cccc(Nc2cc(C)c3c(O)cccc3n2)c1C	inconclusive [cytotoxic, partial curve]	
Cc1cc2nc(-c3ccc[nH]c3=O)[nH]c2cc1C	active: 18.4 µM	
COc1cccc(CN2CCC(C(=O)NC(C)c3cccc4ccccc34)CC2)c1 (configuration not stated)	inconclusive [cytotoxic, single point]	
COc1ccc(Cl)cc1NC(=O)CSc1ncnc2c1oc1ccccc12		inactive: -0.595%
O=C(Nc1ccc(-c2noc(CCc3ccccc3)n2)cc1)c1cccnc1	inconclusive [cytotoxic, partial curve, poor fit]	
O=C1[C@H](Cc2ccccc2)NCCCC[C@H](c2ccco2)N1Cc1ccccc1	inconclusive [cytotoxic, single point]	
CC1(C)C(=O)NCCN1C(=O)CSc1nccc(-c2ccc(Br)cc2)n1	inconclusive [cytotoxic, single point]	
O=C(c1ccccc1)C1CCN(C(=O)c2ccc(Cl)cc2)CC1		inactive: 0.246%

SMILES	Potency	activity, negative = less viability
CCN(CC)c1ccc(Nc2nc(N3CCOCC3)c3ccccc3n2)cc1	active: 11.2 µM	
CCC(=O)N1CCN(c2ccccc2NC(=O)COc2cc(C)ccc2C(C)C)CC1	inconclusive [cytotoxic, single point]	
C/C=C\C(=O)Nc1cccc(C2=NOC3(C2)C[C@@H](C(N)=O)N(C(=O)c2ccccc2)C3)c1 (some centres not stated)		inactive: 2.38%
CC(Oc1ccc(Br)cc1)C(=O)N(C)CC(=O)Nc1ccc(N2CCOCC2)cc1 (configuration not stated)		inactive: 4.57%
Cc1ccc(-c2cc(-c3ccc4c(c3)OCO4)c(C#N)c(N)n2)o1	inconclusive [cytotoxic, partial curve]	
Cc1ccc(S(=O)(=O)c2c(C)c(C)c(C)[nH]c2=O)cc1		inactive: 11.6%
COc1cccc(CNc2nc3cc(-c4ccsc4)sc3c(=O)n2C)c1OC	inconclusive [cytotoxic, single point]	
CC(C)C[C@@H](CN1CCC[C@H]1CN1C(=O)C(=O)NC[C@@H]1Cc1ccccc1)N1C[C@H](Cc2ccc(O)cc2)N(CC2CCCCCC2)C(=O)C1=O	active: 23.1 µM	
Cc1cc(C(=O)NC2CCCc3c2cnn3-c2cccc(C)c2C)n(C)n1 (configuration not stated)		inconclusive: -37.4% [cytotoxic]
CCc1ccc(CNC(=O)C2CCC(=O)N(CCc3ccc(Cl)cc3)C2)nc1 (configuration not stated)		inactive: 6.44%
CCCCn1c(N)c(N(CC)C(=O)c2ccc(N3CCCC3=O)cc2)c(=O)[nH]c1=O	inconclusive [rising, partial curve]	
CCCc1cc(=O)[nH]c(SCC(=O)c2c(N)n(CC(C)C)c(=O)n(C)c2=O)n1	inconclusive [cytotoxic, full curve]	
CC(=O)Nc1ccc(NC(=O)CSc2ccc3nnc(-c4ccccn4)n3n2)cc1		inactive: 3.85%
C/C(=N\NC(=O)c1cccc(F)c1)c1ccc(Br)s1	active: 11.2 µM	
COc1ccc(Br)cc1CNCC1CCCO1 (configuration not stated)		inactive: 1.61%
O=C(NC(=S)Nc1ccc([N+](=O)[O-])cc1O)C1CCCCC1	inconclusive [cytotoxic, single point]	
Cc1cc(Cl)ccc1OCC(=O)NNC(=O)c1cnccn1		inconclusive: -10.9% [cytotoxic]
CC1=CC2=NC(=O)/C(=C\c3cccn3CCOc3cc(C)ccc3C)C(=N)N2O1	inconclusive [cytotoxic, single point]	
CC(=O)Nc1ccc(C(=O)N/C(=C\c2ccccc2)C(=O)Nc2cccc(C(=O)O)c2)cc1		inactive: 10%
CC[C@@H](C)[C@H](CN[C@H](CNC)C(C)C)NC[C@@H](C)c1ccc(CC(C)C)cc1	inconclusive [cytotoxic, single point]	
CC(C)(C)C(=O)O/N=C(\N)Cc1ccc(-c2csnn2)cc1		inactive: -13.6%
CCSc1nnc(NC(=O)CCC2CCCCC2)s1		inactive: -4.4%
COc1cc2c(cc1NC(=O)CSc1cccc[n+]1[O-])oc1ccccc12		inactive: 3.94%
CCOc1ccc(-n2nc3ccc(NC(=O)CC)cc3n2)cc1	inconclusive [cytotoxic, single point]	

SMILES	Potency	activity, negative = less viability
Cc1n[nH]c(C)c1S(=O)(=O)N1CCCC(C(=O)Nc2ccc(Br)cc2)C1 (configuration not stated)		inconclusive: -32.1%
O=C1c2ccccc2-c2onc3ccc(NCCCn4ccnc4)c1c23	inconclusive [cytotoxic, single point]	
Nc1nc2c(ncn2-c2ccccc2)c(=O)[nH]1		inactive: -3.69%
Cn1c(CCN2CCCCC2)nc2cc(NS(=O)(=O)c3ccccc3)ccc21		inactive: -25.8%
Cc1coc2c(O)cc3c(c12)OC1(N2CCCCC2)C(=O)NCCCC31 (configuration not stated)	inconclusive [cytotoxic, single point]	
COCCCn1cc(CN2CC(N(C)C)CS2(=O)=O)nn1 (configuration not stated)		inactive: 23.5%
C=C1C(=O)CC2=C1[C@](Cc1ccc(F)cc1)(C(=O)OC)N(C(=O)c1ccccc1)C2	inconclusive [cytotoxic, single point]	
CCC1C(=NO)C(CC)C(c2ccccc2)NC1c1ccccc1 (configuration not stated)	inconclusive [cytotoxic, single point]	
Cc1ccc(-c2nnc(-c3cccs3)o2)cc1		inconclusive: -0.215%
O=C1CC(NC(=O)C(F)(F)F)c2cc3c(cc21)OCO3 (configuration not stated)		inconclusive: 33.2%
[O-][n+]1c2c(c3c4non(O)c4ccc31)CCCC2	inconclusive [cytotoxic, single point]	
COc1cc(C(=O)Oc2ccccc2/C=N/NC(=O)c2ccc(C)c(Cl)c2)cc(OC)c1OC	inconclusive [cytotoxic, partial curve]	
COc1ccc(C(=O)NC(=C(Cl)Cl)S(=O)(=O)c2ccc(C)cc2)cc1	inconclusive [cytotoxic, single point]	
COc1ccc(C(CC(=O)NCC(OC)OC)NS(=O)(=O)c2ccc(Cl)cc2)cc1 (configuration not stated)		inconclusive: 32.1%
O=C(CCc1ccc(S(=O)(=O)N2CCOCC2)cc1)Nc1nc(COc2ccccc2)cs1	inconclusive [cytotoxic, single point]	
CCCNC(=O)C1(C)CCN(Cc2ccc(OC)c3ccccc23)C1 (configuration not stated)		inactive: -14.8%
COCc1[nH][nH]c(=O)c1/C=N/N1CCOCC1		inactive: 9.93%
COC(=O)c1c(N2C(=O)Nc3ccccc3N2O)sc(C)c1C		inactive: -2.82%
CCCCn1c(N)c(N(CCOC)C(=O)CN(C)CC(=O)Nc2ccc(Cl)c(Cl)c2)c(=O)[nH]c1=O		inactive: -8.9%
COc1ccc(-n2c(SCCNCCO)nc3sc4c(c3c2=O)CCCC4)cc1	inconclusive [cytotoxic, single point]	
O=C1NC(=Nc2ccccc2)S/C1=C\c1cccn1-c1ccccc1	inconclusive [cytotoxic, full curve]	
CC(COc1ccccc1)N1CCC(CO)(CCc2ccccc2)CC1 (configuration not stated)	active: 16.4 µM	
CN(C)CCCN(C(=O)CCOc1ccccc1)c1nc2c(F)cccc2s1	active: 14.6 µM	
CCC(C)Nc1nc(N)c([N+](=O)[O-])c(Nc2ccccc2OC)n1 (configuration not stated)	inconclusive [cytotoxic, partial curve]	
